Experimental data taken from the supplement of paper PMC6135742.
Where a name gives a salt, the structure may show the parent alone. ± gives the standard deviation of the averaged measurements. In all, about 2,600 compounds were measured (“total cell number (DAPI+ nuclei) relative to DMSO vehicle control”: median about -1.4, lowest 2% from about -23 on). The list shows a part of the results.

Test system: jimpy (Plp1 jimpy) mouse iPSC-derived oligodendrocyte progenitor cells
Assay: total cell number (DAPI+ nuclei) relative to DMSO vehicle control (SDs above negative control mean); higher = more surviving cells
Conditions: 10 µM; 3 days

SMILES	total cell number
CC(=O)OC[C@H]1O[C@@H]([S-])[C@H](OC(C)=O)[C@@H](OC(C)=O)[C@@H]1OC(C)=O.CCP(CC)CC.[Au+] [Auranofin]	-9.05
CCCCCCCCCC(=O)N[C@@H](Cc1c[nH]c2ccccc12)C(=O)N[C@H](CC(N)=O)C(=O)N[C@@H](CC(=O)O)C(=O)N[C@@H]1C(=O)NCC(=O)N[C@@H](CCCN)C(=O)N[C@@H](CC(=O)O)C(=O)N[C@H](C)C(=O)N[C@@H](CC(=O)O)C(=O)NCC(=O)N[C@H](CO)C(=O)N[C@@H]([C@H](C)CC(=O)O)C(=O)N[C@@H](CC(=O)c2ccccc2N)C(=O)O[C@@H]1C [Daptomycin]	1.06
CCC1(c2ccccc2)C(=O)NCNC1=O [Primidone]	-0.814 ± 0.99
CCCCc1oc2ccc(NS(C)(=O)=O)cc2c1C(=O)c1ccc(OCCCN(CCCC)CCCC)cc1 [Dronedarone HCl]	-15.2
Nc1ncnc2c1ncn2[C@@H]1O[C@H](CO)[C@@H](O)[C@@H]1O [Vidarabine]	-8.76
NC[C@@H]1O[C@H](C23CC4CC(CC(C4)C2)C3)Cc2c1ccc(O)c2O	-10
C[C@@](Cc1ccc(O)c(O)c1)(NN)C(=O)O [Carbidopa]	-3.87
C=CC(=O)Nc1cccc(Oc2nc(Nc3ccc(N4CCN(C)CC4)cc3)ncc2Cl)c1	-26.9
CCOc1nc2cccc(C(=O)O)c2n1Cc1ccc(-c2ccccc2-c2nnn[nH]2)cc1 [Candesartan]	-1.19
CSC(=N)N [S-Methylisothiourea hemisulfate]	-1.65
CCS(=O)(=O)N1CC(CC#N)(n2cc(-c3ncnc4[nH]ccc34)cn2)C1	-1.56
CC(C)S(=O)(=O)N[C@H]1CCOC[C@@H]1c1ccc(-c2ccc(C#N)s2)cc1	-8.53
Cl.N[C@@H](CCC(=O)O)C(=O)O [L-Glutamic acid hydrochloride]	-2.38
Clc1ccc2c(c1)CCc1cccnc1C2=C1CCNCC1 [Desloratadine]	-5.13
O=C1NCC2(CCN(CCc3ccccc3)CC2)O1 [Fenspiride hydrochloride]	2.58
O=C1NCC2(CCN(CCc3ccccc3)CC2)O1 [Fenspiride HCl]	9.07
O=C(O)CCc1ccc(NCc2cccc(Oc3ccccc3)c2)cc1	-0.425 ± 2
O=C1NC(=O)c2cc(Nc3ccccc3)c(Nc3ccccc3)cc21	-7.71
CCCOc1ccc2[nH]c(NC(=O)OC)nc2c1 [Oxibendazole]	-3.62
O=C(CCCCCN1CCN(c2ccccc2-c2ccccc2)CC1)NC1CCCc2ccccc21 (stereo not drawn) [LP 12 hydrochloride hydrate]	-3.26
O=C(c1ccc(F)cc1)C1CCN(CCn2c(=O)[nH]c3ccccc3c2=O)CC1 [Ketanserin]	-0.515
O=C(c1ccc(F)cc1)C1CCN(CCn2c(=O)[nH]c3ccccc3c2=O)CC1 [Ketanserin tartrate]	-2.42
NC(=O)Nc1cc(-c2cccc(F)c2)sc1C(=O)N[C@H]1CCCNC1	-17.4
C[C@H]1[C@H](C)CC[C@]2(C(=O)O)CC[C@]3(C)C(=CC[C@@H]4[C@@]5(C)CC[C@H](O)C(C)(C)[C@@H]5CC[C@]43C)[C@H]12 [Ursolic Acid]	-9.81

SMILES	total cell number
NC1(C(=O)O)CC1 [1-Aminocyclopropanecarboxylic acid hydrochloride]	-5.54
CCN(CC)C(=O)c1ccc(O)c(OC)c1 [Vanillic acid diethylamide]	-5.92
Nc1nccc(Oc2ccc(NC(=O)c3c[nH]cc(-c4ccc(F)cc4)c3=O)cc2F)c1Cl	3.73
COc1ccc2c(Oc3ccc(NC(=O)c4c(C)n(CC(C)(C)O)n(-c5ccccc5)c4=O)nc3)ccnc2c1	-3.37
COc1c(C)cnc(Cn2cnc3c(Cl)nc(N)nc32)c1C	-26.3
CC(C)CCNC(=O)[C@H](CC(C)C)NC(=O)[C@H]1O[C@@H]1C(=O)O [Loxistatin Acid (E-64C)]	-1.41
NCCCCCC(=O)O	-0.295
c1ccc2c(CCNc3ccc(Nc4ccncc4)cc3)c[nH]c2c1	-18.9
Cc1nc2c([nH]1)-c1ccccc1N(C(=O)c1ccc(NC(=O)c3ccccc3-c3ccccc3)cc1)CC2 [Conivaptan HCl]	-1.77
CNCCc1ccccn1 [Betahistine 2HCl]	-0.73
COc1ccc(C2(O)OC(=O)C(c3ccc4c(c3)OCO4)=C2Cc2cc(OC)c(OC)c(OC)c2)cc1 (stereo not drawn)	-1.66
CCCCCCCCCCCCCCCC(=O)OC[C@H](O)[C@H]1OC(=O)C(O)=C1O [L-Ascorbyl 6-palmitate]	-0.778
Nc1nc2c(ncn2COC(CO)CO)c(=O)[nH]1 [Ganciclovir]	-1.05 ± 0.75
Cc1csc(-c2nnc(Nc3ccc(Oc4ncccc4-c4ccnc(N)n4)cc3)c3ccccc23)c1	-3.57
N=C(N)NCCCCNC(=N)N [Arcaine sulfate]	-1.25
CN1CCN(C2Cc3ccccc3Sc3ccc(Cl)cc32)CC1 (racemic) [(±)-Octoclothepin maleate]	-3.08
Clc1cccc(Cl)c1NC1=NCCN1 [Clonidine HCl]	0.804
Clc1cccc(Cl)c1NC1=NCCN1 [Clonidine hydrochloride]	-0.554
C[C@]12C=CC(=O)N[C@@H]1CC[C@@H]1[C@@H]2CC[C@]2(C)[C@@H](C(=O)Nc3cc(C(F)(F)F)ccc3C(F)(F)F)CC[C@@H]12 [Dutasteride]	-1.53
CO[C@H]1/C=C/O[C@@]2(C)Oc3c(C)c(O)c4c(O)c(c5c(nc6cc(C)ccn65)c4c3C2=O)NC(=O)/C(C)=C\C=C\[C@H](C)[C@H](O)[C@@H](C)[C@@H](O)[C@@H](C)[C@H](OC(C)=O)[C@@H]1C [Rifaximin]	-2.3
Cc1cnc(Nc2ccc(OCCN3CCCC3)cc2)nc1Nc1cccc(S(=O)(=O)NC(C)(C)C)c1	-12.3
Cn1ncnc1[C@H]1c2n[nH]c(=O)c3cc(F)cc(c23)N[C@@H]1c1ccc(F)cc1	-8.84
COc1cc(-c2ncn(/C=C\C(=O)OC(C)C)n2)cc(C(F)(F)F)c1	-14.9
COc1ccc(-c2nc(N3CCOCC3)c3sc(CN(C)c4ncc(C(=O)NO)cn4)cc3n2)cn1	-10.4
